Consider 66 compounds from paper PMC6919601, “Identification of Plasmodium dipeptidyl aminopeptidase allosteric inhibitors by high throughput screening” (PLoS ONE, 2019).

The whole screen tested about 110,000 compounds, of which about 230 (0.21%) showed an effect of 50% or more. This is one part of the list.
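Further: 30 min substrate incubation versus DMSO and 10 µM JCP410 controls.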

Sequence of DPAP1 (Q8IIJ9 whole entry, looked up): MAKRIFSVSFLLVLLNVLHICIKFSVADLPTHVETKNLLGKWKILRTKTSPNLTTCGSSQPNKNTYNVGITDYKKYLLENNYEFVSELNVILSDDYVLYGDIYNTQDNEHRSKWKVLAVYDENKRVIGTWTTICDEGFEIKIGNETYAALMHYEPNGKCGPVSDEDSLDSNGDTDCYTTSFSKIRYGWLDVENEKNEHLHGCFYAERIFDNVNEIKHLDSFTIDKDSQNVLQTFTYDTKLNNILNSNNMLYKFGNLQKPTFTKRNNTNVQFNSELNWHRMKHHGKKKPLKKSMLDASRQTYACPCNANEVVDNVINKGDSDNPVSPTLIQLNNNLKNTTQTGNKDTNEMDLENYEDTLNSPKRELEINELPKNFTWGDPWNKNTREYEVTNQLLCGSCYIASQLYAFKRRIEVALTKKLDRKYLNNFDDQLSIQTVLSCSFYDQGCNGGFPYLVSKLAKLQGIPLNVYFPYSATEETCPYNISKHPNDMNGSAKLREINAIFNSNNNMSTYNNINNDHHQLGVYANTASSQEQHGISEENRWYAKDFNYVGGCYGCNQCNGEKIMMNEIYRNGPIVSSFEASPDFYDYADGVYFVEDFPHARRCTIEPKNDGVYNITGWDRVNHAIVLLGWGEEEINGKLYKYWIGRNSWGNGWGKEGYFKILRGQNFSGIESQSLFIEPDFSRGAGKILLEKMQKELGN

The assay has as its target DPAP1 (Plasmodium falciparum, UniProt Q8IIJ9). In words: primary screen, percent inhibition; read by cleavage of a fluorogenic dipeptide substrate; higher = more effect of the substance. Also noted: species or system P. falciparum D10 trophozoite lysates; single well.
As to `Cc1nn(Cc2noc(C(N)=O)n2)c(C)c1Br`, the “% Inhibition @ 10 uM” value is -2.28%.

Turning to `C=CCn1c(CCNC(=O)c2ccco2)nc2ccccc21`, the “% Inhibition @ 10 uM” value was found to be 3.62%.

For `CCCCNC(=O)c1cc2cc3ccc(OC)cc3nc2o1`, the “% Inhibition @ 10 uM” value was 1.9%.

Turning to `COC(=O)C1=CN(CC2CCCO2)C=C(C(=O)OC)C1c1cccc(OC)c1OC` (stereo not drawn), the “% Inhibition @ 10 uM” value is recorded as -7.18%.

Regarding `CN(C)c1c(Cl)cnn(-c2ccccc2)c1=O`, the “% Inhibition @ 10 uM” value is -4.4%.

Turning to `Cc1cc(C)c(S(=O)(=O)NCCCO)c(C)c1`, the “% Inhibition @ 10 uM” value is 4.82%.

In the case of `Cc1nn(-c2ccc(C(=O)O)cc2)c(N)c1-c1ccccc1`, the “% Inhibition @ 10 uM” value is listed as 3.38%.

Take `Cc1cccc(OCC(=O)N2CCCc3ccccc32)c1`: the “% Inhibition @ 10 uM” value was -0.173%.

In the case of `Cn1c(=O)c2sccc2n2c(CCCC(=O)NCCc3ccccc3)nnc12`, the “% Inhibition @ 10 uM” value is 3.47%.

Take `Cc1ccc(C)c(OCC(=O)Nc2ccccc2C)c1`: the “% Inhibition @ 10 uM” value is listed as -1.57%.

With `CCCC(=O)Nc1sc2c(c1C#N)CCCCCC2`, the “% Inhibition @ 10 uM” value is on record as 5.54%.

`CCOC(=O)c1c(NC(=O)c2cc3ccccc3cc2OC)sc(C)c1C`: the “% Inhibition @ 10 uM” value was found to be 10.5%.

On to `C/C=C/C(=O)Nc1ccccc1OC`, for which the “% Inhibition @ 10 uM” value is reported as -1.92%.

`COc1ccc2cc(C3CC(c4cccs4)=NN3C(C)=O)c(Cl)nc2c1` (stereo not drawn): the “% Inhibition @ 10 uM” value was -12.3%.

Turning to `CCOC(=O)N1CCN(Cc2ccccc2Cl)CC1`, the “% Inhibition @ 10 uM” value was -0.0494%.

As to `CCOC(=O)Cc1c(C)c2ccc(N(CC)CC)cc2oc1=O`, the “% Inhibition @ 10 uM” value is on record as -5.48%.

On to `Cc1nc2c(c(C)c1CCC(=O)NCC1CCN(C3CCCC3)C1)c(=O)n(C)c(=O)n2C` (stereo not drawn), for which the “% Inhibition @ 10 uM” value was -6.91%.

On to `O=C(O)c1cc(-c2ccc(O)cc2)nc2ccccc12`, for which the “% Inhibition @ 10 uM” value came out at 3.48%.

With `COc1ccc2c(C)c(CCC(=O)NCc3ccco3)c(=O)oc2c1`, the “% Inhibition @ 10 uM” value turned out to be 2.54%.

As to `CCn1cc(C2C(C#N)=C(N)Oc3ccc4ccccc4c32)cn1` (stereo not drawn), the “% Inhibition @ 10 uM” value came to 4.31%.

Take `CCn1c(NCc2ccc(C(F)(F)F)cc2)nc2ccccc21`: the “% Inhibition @ 10 uM” value is -1.74%.

As to `Cc1ccc(NC(=O)c2cnn(C)c2C)c(Br)c1`, the “% Inhibition @ 10 uM” value is 1.86%.

In the case of `COc1cc(C2C3=C(O)CC(c4ccccc4)CC3=NC(C)=C2C(=O)Nc2ccccc2F)ccc1O` (stereo not drawn), the “% Inhibition @ 10 uM” value is recorded as -2.68%.

`O=C(c1ccco1)N1CCN(c2ncnc3c2oc2ccccc23)CC1`: the “% Inhibition @ 10 uM” value is -1.72%.

Take `O=C1c2ccccc2C(=O)N1CCc1nc(S)n[nH]1`: the “% Inhibition @ 10 uM” value is reported as 11.2%.

Regarding `O=C(CSCc1cnn(-c2ccccc2)c1-n1cccc1)NCCc1ccccc1`, the “% Inhibition @ 10 uM” value was -2.85%.

As to `CN(C)c1ccc(C(=O)Nc2ccc(Cl)cn2)cc1`, the “% Inhibition @ 10 uM” value is reported as 4.76%.

As for `Cc1ccc(C2=NNC(c3cccc(F)c3)S2)cc1` (stereo not drawn), the “% Inhibition @ 10 uM” value is reported as 2%.

Consider `O=C1C2C3C=CC(C2C(=O)N1Cc1cccnc1)C1C(=O)N(Cc2cccnc2)C(=O)C31` (stereo not drawn), for which the “% Inhibition @ 10 uM” value was -3.19%.

For `COc1ccc2c(c1)CCc1c(C(=O)NCc3ccc(Cl)cc3)noc1-2`, the “% Inhibition @ 10 uM” value is on record as -7.85%.

As for `CCc1nnc(NC(=O)c2c(C)nn(-c3ccc(C)cc3)c2-n2cccc2)s1`, the “% Inhibition @ 10 uM” value is recorded as -3.54%.

With `Cc1ccc(Cl)cc1NC(=O)c1c(-c2ccccc2)noc1C`, the “% Inhibition @ 10 uM” value was -1.65%.

`COc1cc(CNC(C)(C)CO)cc(Br)c1OCc1ccc(F)cc1`: the “% Inhibition @ 10 uM” value was 10.5%.

`CCCC(=O)N1CCc2cc(OC)c(OC)cc2C1COc1ccc(F)cc1` (stereo not drawn): the “% Inhibition @ 10 uM” value is -2.84%.

Take `COC(=O)c1cc(S(=O)(=O)NCc2ccc(OC(C)C)cc2)cn1C`: the “% Inhibition @ 10 uM” value was determined as 5.56%.

`COc1ccc(CN2CCc3c([nH]c4ccccc34)C2)cc1C`: the “% Inhibition @ 10 uM” value was -2%.

As for `Cc1ccc(C(=O)Sc2nnnn2-c2ccccc2)cc1`, the “% Inhibition @ 10 uM” value is on record as 29.4%.

`CC(=O)N(CC(C)(C)CC=C(C)C)c1ccccc1`: the “% Inhibition @ 10 uM” value is 1.34%.

Regarding `COc1cc2c(cc1OC)CN(Cc1ccc(Cl)cc1Cl)CC2`, the “% Inhibition @ 10 uM” value is -1.98%.

With `Cc1cccc(-c2nc(CS(=O)CC(=O)NC3CCCC(C)C3C)c(C)o2)c1` (stereo not drawn), the “% Inhibition @ 10 uM” value was -2.85%.

For `COc1ccc2cc[n+](C)cc2c1-c1c(OC)ccc2cc[n+](C)cc12`, the “% Inhibition @ 10 uM” value is 2.51%.

For `CC1SC2(C(=O)Nc3ccccc32)N(c2ccc3ccccc3c2)C1=O` (stereo not drawn), the “% Inhibition @ 10 uM” value is -6.62%.

Turning to `Nc1cccnc1N1CCOCC1`, the “% Inhibition @ 10 uM” value is on record as 1.12%.

With `COc1ccc(C2CC(=O)c3cnc4c(-c5ccc(Cl)cc5)c(C)nn4c3C2)cc1` (stereo not drawn), the “% Inhibition @ 10 uM” value was found to be 2.31%.

For `Cc1ccc(CNCCSc2nnnn2-c2ccccc2)s1`, the “% Inhibition @ 10 uM” value is given as -4.71%.

For the compound `COc1cc(OC)cc(C(=O)Nc2ccc(S(=O)(=O)NC(C)=O)cc2)c1`, the “% Inhibition @ 10 uM” value came to 1.15%.

As for `CN(Cc1ccco1)C1CCCCC1NS(=O)(=O)c1ccccc1` (stereo not drawn), the “% Inhibition @ 10 uM” value is -4.19%.

In the case of `CC(=O)c1cc(-c2ccccc2)n(CCC(=O)NCc2ccc3c(c2)OCO3)c1C`, the “% Inhibition @ 10 uM” value is -1.88%.

As for `CC(=O)N1CCN(C2=NC(=O)/C(=C/c3ccccc3OCc3ccccc3)S2)CC1`, the “% Inhibition @ 10 uM” value amounted to 0.487%.

For `CC1CCc2cc(F)ccc2N1C(=O)Nc1ccccc1` (stereo not drawn), the “% Inhibition @ 10 uM” value is recorded as -8.44%.

For `COc1ccc(S(=O)(=O)Cc2ccc(C(=O)N3CCC4(CC3)OCCO4)o2)cc1`, the “% Inhibition @ 10 uM” value was -1.28%.

For the compound `Cc1cccc(C(=O)NCc2cccnc2)c1`, the “% Inhibition @ 10 uM” value was -8.76%.

In the case of `CCOC(=O)N1CCC(NC(=O)c2cc(C)nc3c2c(C)nn3-c2ccccc2)CC1`, the “% Inhibition @ 10 uM” value is given as -4.97%.

As for `Cc1ccc(NC(=O)NC(C)c2ccc(C)cc2)cc1` (stereo not drawn), the “% Inhibition @ 10 uM” value turned out to be 14.1%.

Regarding `CCN1C(=S)NC2CC1(C)Oc1ccc(C(=O)OC)cc12` (stereo not drawn), the “% Inhibition @ 10 uM” value is -8.78%.

Regarding `COc1ccc(NC(=N)Nc2nc(O)cc(CSc3nc4ccccc4s3)n2)cc1`, the “% Inhibition @ 10 uM” value is 6.98%.

`OC1CCN(Cc2ccc(Cl)cc2Cl)C1` (stereo not drawn): the “% Inhibition @ 10 uM” value is reported as -0.292%.

Consider `CCN(CC)CCN1C(=O)C(O)=C(C(=O)c2ccc(Cl)cc2)C1c1ccc(C)cc1` (stereo not drawn), for which the “% Inhibition @ 10 uM” value came to 41.4%.

With `CCN1C(=O)/C(=C\c2cc(C)n(-c3cc(C)cc(C)c3)c2C)C(C(=O)OC)=C1C`, the “% Inhibition @ 10 uM” value is -1.81%.

As to `N#CC1=C(N)Oc2nc(O)nc(O)c2C1c1cccc2ccccc12` (stereo not drawn), the “% Inhibition @ 10 uM” value is reported as -2.46%.

Regarding `C#CCN1C(=O)C(O)(CC(=O)c2ccc(OC)c(OC)c2)c2ccccc21` (stereo not drawn), the “% Inhibition @ 10 uM” value is listed as -0.941%.

Regarding `O=C(Cc1ccccc1)Nc1ccccc1F`, the “% Inhibition @ 10 uM” value was 5.29%.

For the compound `Cc1cc(C(=O)CSc2n[nH]c(N)n2)c(C)n1-c1ccc(F)cc1`, the “% Inhibition @ 10 uM” value was -6.74%.

`COc1cccc2cc(C(=O)NCCOC34CC5CC(CC(C5)C3)C4)c(=O)oc12`: the “% Inhibition @ 10 uM” value came out at 0.503%.

On to `CCC[C@H](NC(=O)OCc1ccccc1)C(=O)c1noc(C(=O)NCc2ccc(-c3ccccc3)cc2)n1`, for which the “% Inhibition @ 10 uM” value was found to be 19.1%.

Consider `C=Cc1ccc(Cn2c(C(=O)O)c(CNCc3ccc(OCC)c(OC)c3)c3ccccc32)cc1`, for which the “% Inhibition @ 10 uM” value was found to be 2%.
